Experimental data: PMC4336329 (PLoS ONE, 2015)
Hit rate of the full screen: of about 310,000 compounds, about 14,000 (4.5%) showed an effect of 50% or more. The effect is printed as a negative number. Some of the results follow.

molecular target: human ether-à-go-go-related gene (hERG) potassium channel (human, UniProt Q12809); assay: primary screen, population patch clamp on CHO cells stably expressing hERG
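Note: peak tail current of the secondary pulse compared with the same well before compound.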

human ether-à-go-go-related gene (hERG) potassium channel, sequence (Q12809 whole entry, looked up): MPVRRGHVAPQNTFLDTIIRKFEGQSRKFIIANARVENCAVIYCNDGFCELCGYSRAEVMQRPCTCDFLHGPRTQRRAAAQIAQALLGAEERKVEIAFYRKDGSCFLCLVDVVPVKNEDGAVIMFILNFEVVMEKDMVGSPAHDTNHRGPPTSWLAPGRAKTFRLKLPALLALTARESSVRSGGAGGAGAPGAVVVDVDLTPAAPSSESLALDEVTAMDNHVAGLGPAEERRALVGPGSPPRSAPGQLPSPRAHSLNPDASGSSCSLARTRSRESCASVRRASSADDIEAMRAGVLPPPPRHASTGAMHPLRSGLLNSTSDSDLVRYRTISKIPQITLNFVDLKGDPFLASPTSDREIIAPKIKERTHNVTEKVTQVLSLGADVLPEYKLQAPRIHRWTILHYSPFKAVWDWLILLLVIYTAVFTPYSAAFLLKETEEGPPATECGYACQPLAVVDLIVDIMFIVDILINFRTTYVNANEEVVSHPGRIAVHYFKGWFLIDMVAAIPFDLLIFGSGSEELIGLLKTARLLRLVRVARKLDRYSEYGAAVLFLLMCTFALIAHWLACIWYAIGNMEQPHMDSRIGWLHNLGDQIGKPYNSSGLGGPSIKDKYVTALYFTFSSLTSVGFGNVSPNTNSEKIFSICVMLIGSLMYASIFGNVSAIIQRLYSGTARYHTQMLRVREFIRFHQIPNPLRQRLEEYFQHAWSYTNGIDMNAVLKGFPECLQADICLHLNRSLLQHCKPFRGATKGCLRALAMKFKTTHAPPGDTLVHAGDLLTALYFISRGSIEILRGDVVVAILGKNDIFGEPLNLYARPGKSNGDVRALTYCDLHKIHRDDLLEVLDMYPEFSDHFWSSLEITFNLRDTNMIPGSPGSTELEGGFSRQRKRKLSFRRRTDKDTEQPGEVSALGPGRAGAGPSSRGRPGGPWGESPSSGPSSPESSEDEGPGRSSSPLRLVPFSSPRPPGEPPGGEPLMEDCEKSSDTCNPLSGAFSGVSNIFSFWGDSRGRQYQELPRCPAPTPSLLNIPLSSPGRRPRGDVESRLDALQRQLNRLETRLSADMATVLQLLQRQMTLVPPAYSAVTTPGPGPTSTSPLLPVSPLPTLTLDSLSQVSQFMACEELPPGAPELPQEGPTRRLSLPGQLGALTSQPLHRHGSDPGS

SMILES | hERG current change (%, negative = inhibition) at 10uM
CN(CC(=O)Nc1cccc(F)c1)C(=O)c1ccncc1 | 4.28%
O=C(OCc1ccc(Br)cc1)c1cccc(-c2nnc(-c3ccccc3)o2)c1 | 19.9%
COc1ccccc1NC(=O)Nc1ccccc1C(=O)NCCCN1CCOCC1 | 11%
NC(=O)C1CCCNC1 (stereo not drawn) | 9.24%
COc1ccc(NC(=O)CN(C)C(=O)c2n[nH]c3ccccc23)cc1 | 14.6%
COc1ccc(CCNC(=O)c2cc(-c3ccncc3)nc3ccc(S(=O)(=O)N4CCOCC4)cc23)cc1OC | -11.4%
C/C(CC(=O)NC1CCCCC1)=N\NC(=O)c1ccccn1 | 19.9%
CCc1nnc(NC(=O)CS(=O)(=O)Cc2ccccc2)s1 | 3.84%
COc1cc(/C=C2/C(=O)NN(c3ccc(Cl)cc3)C2=O)cc(OC)c1O | 3.98%
O=C(/C=C/c1ccccc1Cl)c1cccnc1 | -3.64%
Cc1cccc(NC(=O)C(C)SCc2ccccc2)c1 (stereo not drawn) | -2.92%
COc1ccc(S(=O)(=O)N2CCN(C(=O)CCc3c[nH]c4ccccc34)CC2)cc1 | -22.6%
CC(C)C(NS(=O)(=O)c1ccc2c(c1)C(C)(C)C(=O)N2C)C(=O)NCc1ccc(F)cc1 (stereo not drawn) | -7.51%
CCCCC(=O)Nc1cccc(NC(=S)NC(=O)COc2ccccc2Cl)c1 | 12.1%
CCOC(=O)c1c(-c2ccc(-c3ccccc3)cc2)csc1NC(=O)CCC(=O)O | 6.53%
COc1ccccc1-c1cc(C(=O)NCCCN2CCOCC2)no1 | -28%
Cc1ccc(NC(=O)N2CCC(=O)N2)cc1 | 25.1%
Brc1ccccc1OCCCn1cnc2ccccc21 | -17.5%
O=C(Cc1ccc(Cl)cc1Cl)OCC(=O)N1CCN(C(=O)c2ccco2)CC1 | -57.6%

SMILES | hERG current change (%, negative = inhibition) at 10uM
O=C(Nc1cccc2[nH]ncc12)NS(=O)(=O)c1ccccc1 | 10.7%
O=C1CC(c2ccccc2)CC(O)=C1C=NCCc1ccccc1 (stereo not drawn) | 6.57%
O=C(CNC(=O)c1cccc(F)c1)N/N=C/c1ccc(O)c([N+](=O)[O-])c1 | 9.59%
COc1ccc(/C=C2\CCC(C3CCCC3)C2=O)cc1Cn1cccn1 (stereo not drawn) | -35.7%
CC(C)(C)C(=O)Oc1cccc(Nc2ncnc3ccccc23)c1 | 9.76%
Cc1ccc2c(c1)N(C(=O)c1ccco1)C(C)(C)c1ssc(=S)c1-2 | -7.06%
COc1ccc(-c2noc(CCC(N)=O)n2)cc1OC | 3.66%
O=C(CSc1ccccc1)Nc1ccc2c(c1)OCO2 | 15.5%
Cc1cc(=O)nc2c3ccccc3n(CC(=O)NC3CCCCC3)n12 | 10.3%
CCc1nnc(NC(=O)c2cc(OC)c(OC)cc2[N+](=O)[O-])s1 | 7.26%
CCC(=O)c1ccc(OCC(O)Cn2nc(C)c(Br)c2C)cc1 (stereo not drawn) | -97.8%
CC(NC(=O)COC(=O)CCc1ccccc1)c1ccccc1 (stereo not drawn) | 9.28%
COc1ccc(-c2cccc(NC(=O)COc3ccc(Cl)cc3)c2)nn1 | -0.165%
O=C(c1cccc(N2CCNC2=O)c1)N1CCCC(Nc2cccc(F)c2)C1 (stereo not drawn) | 3.28%
Cc1cc(CNC(=O)C(C)n2nc(C)c([N+](=O)[O-])c2C)c2ccccc2n1 (stereo not drawn) | 4.89%
Cc1cc(C(=O)CS(=O)(=O)c2ccc(F)cc2)cc(C)c1OC(=O)N(C)C | -8.56%
CC(=O)N1CC(C)Oc2ccc(S(=O)(=O)NC(CC(=O)O)c3cc(C)ccc3C)cc21 (stereo not drawn) | 18%
c1ccc(-n2ncc3c(NCc4ccco4)ncnc32)cc1 | -15%
CCOc1ccc(NS(=O)(=O)c2cnc(Cl)c(Cl)c2)cc1 | -12.6%

SMILES | hERG current change (%, negative = inhibition) at 10uM
Cl.Clc1ccccc1CSC1=NCCN1 | -3.32%
CCCCn1c(-c2ccoc2C)n[nH]c1=S | 12.6%
Cc1onc(-c2c(F)cccc2Cl)c1C(=O)c1ccccc1 | -1.39%
COc1ccc(C(=O)CSc2nnc(CNC(=O)c3ccco3)n2C)cc1OC | 17%
COC(=O)C(CO)Nc1ncnc2onc(-c3ccc(F)cc3)c12 (stereo not drawn) | 14.2%
O=c1c2ccccc2nc(-c2cccc(Cl)c2)n1O | 7.43%
Fc1ccccc1N1CCN(c2nc3ccccc3n3nnnc23)CC1 | 4.29%
COc1ccc(C2=NN(C(=O)c3ccccc3C(=O)O)C(c3ccccc3O)C2)cc1 (stereo not drawn) | -0.273%
O=C(CSc1nc2ccccc2c(=O)n1NC(=O)Cc1ccccc1)NCc1ccccc1Cl | -19.5%
NC(=O)N/N=C/c1c(Sc2nnnn2-c2ccccc2)nc2ccccn2c1=O | -21.2%
Brc1ccc(-c2csc(-c3c[nH]c4ccccc34)n2)cc1 | 15.1%
CC1(C)Cc2c(C#N)c(N3CCCC3)nc(-c3ccco3)c2CO1 | 5.08%
COP(=O)(c1ccc(N(C)C)cc1)C(O)c1ccccc1 (stereo not drawn) | 5.46%
O=C(CCS(=O)(=O)Cc1ccc(Cl)cc1)NCCCN1CCOCC1 | -8.33%
CN1CCN(S(=O)(=O)c2ccc(NC(=S)NC(=O)C3CCCC3)cc2)CC1 | 9.58%
O=S(=O)(Nc1ncccn1)c1ccc(NC(=S)Nc2ccccc2Cl)cc1 | 19.7%
Cc1ccc(S(N)(=O)=O)c(C)c1N1CCCC1=O | 22.9%
O=C1OC(/C(=C\Nc2cc(Cl)ccc2O)[N+](=O)[O-])c2ccccc21 (stereo not drawn) | -0.699%
CC(C)(C)[C@@H]1C=C(C(=O)Nc2ccccc2)O[C@H](OCc2ccc(CO)cc2)C1 | 11.9%
